Measurements: PubChem BioAssay AID938 (National Center for Advancing Translational Sciences (NCATS), 2007)
Where “and” joins values, the source holds several entries; their conditions need not be identical. Equal values may be shown once. Screen size: about 73,000 compounds; about 1,800 (2.5%) were called active. The inconclusive results got no clear call from the source; some entries with a clear call stand among them for comparison. Calls follow the shape of the dose curve; as a rule, active = well fitted activation curve with a large enough effect; inconclusive = small, poorly fitted or top-dose-only effect; inactive = no such curve, though single readings can be large or run the other way. No potency is given beside an inconclusive call; the fits are too rough.

experiment: qHTS Assay for Agonists of the Thyroid Stimulating Hormone Receptor: Activators of Intracellular cAMP Concentrations in Parental HEK 293; settings: parental HEK293 CNG cAMP sensor, membrane potential fluorescence; activation: at 57.1 µM (top of the series) unless noted; also: nearly all actives have a fitted effect of over 55% in size; as to activation: % of control where 0% means no effect
Outline: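 Counterscreen for endogenous-receptor signalling: CNG-channel HEK 293 cells report cAMP rise by membrane depolarization. After 60 min dye equilibration with 100 uM RO 20-1724, compounds incubated 30 min before bottom-read fluorescence at 590 nm.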
Potency is read from the fitted curve at half-maximal effect; tags tell the direction and shape of the fitted curve.

SMILES	activation	Potency
COC(=O)NC(CC(C)=O)c1ccc(F)cc1 (stereo unspecified)	inactive: -4.7% [at 11.4 µM]	
Cc1nc(NCc2ccccc2)c2nc(-c3ccccc3)n(CCN3CCOCC3)c2n1		active: 31.6 µM
Cc1cc(C)nc(N(C#N)Cc2ccc(Br)cc2)n1		inconclusive [activator, single point]
COc1ccc(CN(Cc2cc3cc4c(cc3[nH]c2=O)OCO4)C(=O)NC2CCCCC2)cc1		inactive
Cc1onc(-c2ccccc2Cl)c1C(=O)Nc1cccc2cccnc12		inconclusive [activator, partial curve]
CCn1nnc(NC(=O)c2ccccc2Br)n1		active: 31.6 µM
Cc1ccccc1OCc1nc2ccccc2c(=O)n1/N=C/c1ccco1		active: 15.8 µM
COc1ccccc1Nc1nc(N)nc(CN2CCCCCC2)n1		inactive
CCCC/C=C/C(NC(=O)c1ccco1)c1ccccc1 (stereo unspecified)		inconclusive [activator, single point]
Cc1cc2c(nc1C)CCCN2C[C@H](O)CN1CCCc2nc(-c3ccc(Br)cc3)ccc21	inactive: -10.7% [at 11.4 µM] and inactive: 0.463% [at 11.4 µM]	
CCOC(=O)c1sc2nc(SCC#N)n(CC3CCCO3)c(=O)c2c1C (stereo unspecified)		inconclusive [activator, partial curve]
COc1ccccc1NC(=O)c1ccc(-c2ccccc2F)o1		active: 25.1 µM
CN(c1ccc(C(=O)Nc2nccs2)cc1)S(=O)(=O)c1ccccc1		active: 31.6 µM
Cc1ccc(-[n+]2cc(=O)o[nH]2)cc1	inactive: -0.128% [at 11.4 µM]	
Cc1noc(C)c1-c1ccc2ncnc(N3CCOCC3)c2c1		inactive
CCc1ccc(CN(C)CCc2ccccn2)cc1		inconclusive [activator, single point]
O=C(COc1ncnc2ccccc12)N1CCN(S(=O)(=O)c2ccc(Cl)cc2)CC1		inconclusive [activator, single point]
CCOc1ccc(-c2nc(-c3ccc(OC)cc3)no2)cc1OCC		inactive
CC(=O)N1CCc2cc(S(=O)(=O)NC(CC(C)C)C(=O)Nc3ccc4c(c3)OCCO4)ccc21 (stereo unspecified)		inactive
CN(C)c1ncc2nc(-c3cccs3)c(=O)n(CCC#N)c2n1		inactive
C=CCn1c(Cc2cccs2)nnc1SCC(=O)c1cccc(Br)c1		inconclusive [activator, single point]
c1cn(CCCNc2ncnc3nc[nH]c23)cn1		inconclusive [activator, single point]
N#Cc1cccc(-c2nc3cnc(N4CCOCC4)nc3n(C[C@H]3CCCO3)c2=O)c1		inconclusive [activator, partial curve]

SMILES	activation	Potency
Cc1ccc2c(c1)cc(CN(Cc1ccco1)C(=O)COc1ccccc1)c1nnnn12		inconclusive [activator, partial curve, poor fit]
Clc1ccc(-c2noc(CN3CCCCC3)n2)cc1	inactive: -0.131% [at 11.4 µM]	
C=CCn1c(C)cc(C(=O)CSc2nnc(-c3cccc(S(=O)(=O)N(CC)CC)c3)o2)c1C		inconclusive [activator, partial curve]
N#Cc1c(NC(=O)CCN2C(=O)c3ccccc3C2=O)oc(-c2ccccc2)c1-c1ccccc1		inconclusive [activator, single point]
CCn1c(COc2cccc(C)c2)nnc1SCC(=O)CC(=O)Nc1ccccc1OC		inconclusive [activator, single point]
COc1ccc(NS(=O)(=O)c2ccc(OC)c3ccccc23)cn1		inconclusive [activator, single point]
Nc1cccc(S(=O)(=O)O)c1		inactive
Cc1oc(-c2ccc(F)cc2)cc1-c1nn2c(-c3ccco3)nnc2s1		inconclusive [activator, single point]
CCCCCCCCC(=O)NCc1cc(OC)c(O)cc1I		inconclusive [activator, partial curve]
Cc1ccc(C)c(Cn2cnc3c(nnn3-c3ccc(F)cc3)c2=O)c1		active: 1 µM
O=C(CCCCn1c(=O)c2ccccc2n(Cc2ccc(Cl)cc2)c1=O)NCc1ccco1		inconclusive [activator, single point]
CCN(c1ccc2c(c1)OCO2)S(=O)(=O)c1cc(Br)cc2c1N(C(=O)C1CC1)CC2		inconclusive [activator, full curve]
CCCCn1c(CN2CCN(CCO)CC2)nc2ccccc21		inconclusive [activator, single point]
N#Cc1nc(COc2ccc(Br)cc2)oc1N1CCCCCC1		active: 25.1 µM
c1ccc(-c2ccc(-n3ccnc3)cc2)cc1		inconclusive [activator, partial curve]
CCN(CC)S(=O)(=O)c1ccc2oc(C(=O)NCC3COc4ccccc4O3)c(C)c2c1 (stereo unspecified)		inconclusive [activator, partial curve]
CC(C)Oc1ccc(C2CNC(=O)C2)cc1 (stereo unspecified)		inconclusive [activator, full curve, poor fit]
Cc1onc(-c2ccccc2)c1C(=O)NCC1CCCO1 (stereo unspecified)		inactive
C=C(CC1([C@@H](NP(=O)(c2ccccc2)c2ccccc2)[C@H]2C[C@@H]2CCCC)CC1)c1ccccc1		inactive
CC1CCc2sc3ncn4nc(C(=O)NCc5ccco5)nc4c3c2C1 (stereo unspecified)		inconclusive [activator, single point]
Cc1nc(N2CCN(Cc3ccccc3)CC2)nc2c1C(=O)CC(c1ccco1)C2 (stereo unspecified)		inconclusive [activator, single point]
CCNc1nc(NC(C)C)nc(N(C#N)CCOc2ccc(Cl)cc2Cl)n1		active: 31.6 µM
CC(=O)OC[C@H]1O[C@@H](O/N=C(\C)CCN2CCCCc3nc(C)c(C)cc32)[C@H](OC(C)=O)[C@@H](OC(C)=O)[C@H]1OC(C)=O	inactive: -8.71% [at 11.4 µM]	
